# About 2,200 (0.71%) of roughly 310,000 compounds showed an effect of 50% or more. The effect is printed as a negative number. This is one part of the list.
# Target: human ether-à-go-go-related gene (hERG) potassium channel (human, UniProt Q12809)
# Test: primary screen, population patch clamp on CHO cells stably expressing hERG
# Chain of human ether-à-go-go-related gene (hERG) potassium channel (Q12809 whole entry, looked up): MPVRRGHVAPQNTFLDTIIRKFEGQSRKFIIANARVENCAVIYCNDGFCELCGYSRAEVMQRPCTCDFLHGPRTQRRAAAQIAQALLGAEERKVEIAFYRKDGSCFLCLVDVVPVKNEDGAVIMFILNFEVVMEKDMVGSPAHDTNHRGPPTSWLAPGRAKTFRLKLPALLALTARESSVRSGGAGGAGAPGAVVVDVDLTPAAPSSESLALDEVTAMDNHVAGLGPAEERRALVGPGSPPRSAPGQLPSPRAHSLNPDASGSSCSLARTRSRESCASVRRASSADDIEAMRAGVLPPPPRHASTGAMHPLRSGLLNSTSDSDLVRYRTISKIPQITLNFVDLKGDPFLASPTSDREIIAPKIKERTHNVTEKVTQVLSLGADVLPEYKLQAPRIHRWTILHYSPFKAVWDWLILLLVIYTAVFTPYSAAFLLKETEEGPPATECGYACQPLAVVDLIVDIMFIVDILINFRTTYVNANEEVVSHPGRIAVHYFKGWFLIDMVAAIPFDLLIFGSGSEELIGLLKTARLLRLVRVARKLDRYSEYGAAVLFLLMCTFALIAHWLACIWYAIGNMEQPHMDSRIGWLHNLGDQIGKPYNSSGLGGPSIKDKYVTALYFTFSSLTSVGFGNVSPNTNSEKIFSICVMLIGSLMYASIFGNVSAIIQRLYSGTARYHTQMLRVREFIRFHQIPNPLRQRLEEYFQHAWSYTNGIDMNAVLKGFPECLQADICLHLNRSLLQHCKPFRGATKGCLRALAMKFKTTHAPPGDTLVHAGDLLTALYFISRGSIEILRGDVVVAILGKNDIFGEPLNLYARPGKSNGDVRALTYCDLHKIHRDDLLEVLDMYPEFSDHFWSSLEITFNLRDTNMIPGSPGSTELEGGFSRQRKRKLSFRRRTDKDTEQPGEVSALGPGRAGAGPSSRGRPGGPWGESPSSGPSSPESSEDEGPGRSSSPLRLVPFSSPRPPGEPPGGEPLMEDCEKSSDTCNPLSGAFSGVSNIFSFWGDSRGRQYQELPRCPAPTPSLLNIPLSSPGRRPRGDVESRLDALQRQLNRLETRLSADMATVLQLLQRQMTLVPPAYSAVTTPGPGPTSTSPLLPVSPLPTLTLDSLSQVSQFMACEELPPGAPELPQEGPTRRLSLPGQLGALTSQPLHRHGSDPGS
row,SMILES,"hERG current change (%, negative = inhibition) at 1uM [%]"
1,Cc1c(C(=O)NCC2COc3ccccc3O2)oc2ccc(S(=O)(=O)N(C)C3CCCCC3)cc12 (stereo not shown),7.65
2,CCOC(=O)COn1c(=O)c(-c2cc3ccccc3o2)[n+]([O-])c2ccccc21,12.6
3,COc1ccc(Cl)cc1NC(=S)N1CCCCCC1,6.91
4,CN(C)c1ccc(/C=N/N2CCN(Cc3ccccc3Cl)CC2)cc1,13.5
5,CCC(=O)N1CCc2cc(S(=O)(=O)CCC(=O)N3CCCC(C)C3)ccc21 (stereo not shown),10.7
6,COc1cc(NC(=O)COC(=O)CNC(=O)c2ccc(C)cc2)c(C)cc1[N+](=O)[O-],16.2
7,CCN(CC)CCN(C(=O)c1ccc(Br)s1)c1nc2cc3c(cc2s1)OCO3.Cl,8.19
8,Cn1cc(S(=O)(=O)Nc2ccc(Oc3ccccc3)cc2)c(=O)n(C)c1=O,10.6
9,CCOC(=O)c1ccc(-n2cc(C(=O)c3cccnc3)nn2)cc1,11.8
10,Cc1ccccc1OCC(=O)Nc1ccc(N2CCN(S(C)(=O)=O)CC2)cc1,5.16
11,Cc1ccc(NC(=O)C(CC(C)C)NC(N)=O)cc1Cl (stereo not shown),-2.5
12,Fc1cccc(CCN2CCNC[C@H]2Cc2cccc3ccccc23)c1,28.7
13,O=C(NCCO)/C(=C/c1cccc([N+](=O)[O-])c1)NC(=O)c1ccco1,9.43
14,O=S(=O)(c1cccc(-c2csc(-c3cccnc3)n2)c1)N1CCCCC1,1.52
15,CCc1ccc(NC(=O)CSCCN2C(=O)c3ccccc3C2=O)cc1,-8.99
16,CCOc1cc(NC(=O)c2cnccn2)c(OCC)cc1NC(=O)c1cccc(F)c1,12.1
17,Cc1ccccc1N1CCN(Cc2nc(Cc3ccccc3F)no2)CC1,9
18,C=CCSc1nc(C)c(CC(=O)OCC(C)C)c(=O)[nH]1,-1.25
19,CCC(C)C(NC(=O)c1ccccc1NC(=O)c1ccc(OC)cc1)C(=O)NCCCn1ccnc1 (stereo not shown),6.55
20,COC(=O)[C@@H]1C[C@H]2CC[C@H](O)C[C@H]2N1Cc1ccc(N2CCN(C)CC2)cc1,17
21,CCCn1c(=O)c2sccc2n2c(CCCC(=O)NCc3cccnc3)nnc12,20.4
22,CC(=O)Nc1cccc(-c2nnc(SCc3ccccc3C#N)n2C)c1,5.32
23,CN(C1(C)CCS(=O)(=O)C1)S(=O)(=O)c1ccc(F)cc1 (stereo not shown),10.6
24,Oc1c(Cl)cc(Cl)cc1CNc1ccc(Br)cn1,5.3
25,CC(C)CC(=O)Nc1ccc(N2CCOCC2)cc1,8.56
26,O=C(NCCCN1CCOCC1)c1cc(-c2cccc(Br)c2)nc2ccccc12,6.41
27,Cc1cc(NC(=O)COc2ccc(F)c(Cl)c2)no1,10.6
28,CC1CC(C)CN(CCCNC(=O)CN2C(=O)c3cccnc3Oc3ccccc32)C1 (stereo not shown),6.56

row,SMILES,"hERG current change (%, negative = inhibition) at 1uM [%]"
1,CC(C)Sc1nsc2nc(=O)c(/C=C3\C=Nc4ccccc43)c(N)n12,9.89
2,CC1(C)CC(=O)C(C(c2ccco2)C2C(=O)CC(C)(C)CC2=O)C(=O)C1,6.11
3,O=c1c2cc([N+](=O)[O-])cc([N+](=O)[O-])c2[nH]n1-c1ccccc1,13.8
4,CC(=O)Nc1ccc(NC(=O)C(C)OC(=O)c2ccc(OCc3c(C)noc3C)cc2)cc1 (stereo not shown),-15.5
5,CCNC(=O)COC(=O)CCC(=O)c1ccc(F)cc1,5.15
6,COCCNC(=O)N1[C@H]2CC[C@@H]1C(C(=O)OC)=C(c1ccc(OC(F)(F)F)cc1)C2,11.6
7,CN1/C(=C/c2cccc[n+]2C)Sc2ccccc21.[I-],-16.9
8,CC(=O)N1c2ccccc2NC(=O)C1(C)C,13.8
9,Cc1ccc(C(=O)NN=C2CCCCCC2)s1,6.19
10,COc1ccccc1-n1cnnc1SC(C)C(=O)Nc1cccc([N+](=O)[O-])c1 (stereo not shown),12.3
11,COc1cc(C(=O)Nc2cccc(C)c2C)c(Br)c(OC)c1OC,4.34
12,CCOC(=O)C1CCN(C(=O)c2n[nH]c(=O)c3ccccc23)CC1,15.7
13,COc1ccc(C2C(C(=O)Nc3cccnc3)=C(C)Nc3nc(-c4cccs4)nn32)cc1OC (stereo not shown),11.3
14,CN1CCN(c2ccc(CNS(=O)(=O)Cc3ccc(Cl)cc3)cc2)CC1,10.8
15,CC(C)(C)n1nc2c(c1NC(=O)c1ccccc1S(=O)(=O)C(F)F)CS(=O)(=O)C2,7.96
16,CCCCC(=O)Nc1cccc(C(=O)N/N=C/c2ccc(OC)cc2OC)c1,7.55
17,O=C(CNC(=S)N(Cc1ccc(F)cc1)C1CCCCC1)NCCN1CCOCC1,4.36
18,OC(COc1ccc2ccccc2c1Br)Cn1cnc(-c2ccccc2)c1 (stereo not shown),5.05
19,Cc1cc(C)n2nc(CC(=O)NNC(=O)COc3ccccc3)nc2n1,5.14
20,CCOc1ccc(-c2c(C(=O)N/N=C/c3ccccc3)nnn2-c2nonc2N)cc1,12.1
21,Cc1c(C(=O)N2CCCC2)oc2c1-c1nn(CC(=O)NCCCN3CCCCC3C)cc1CC2 (stereo not shown),32.8
22,Cc1cc(C(=O)Cn2nc(C(=O)O)c3ccccc3c2=O)c(C)n1-c1cccc(C(F)(F)F)c1,-3.3
23,Cc1ccc2c(c1)C(=O)CC1(CCCC1)O2,0.593
24,Cc1cccc(-c2ncc(CN3CCCC(CO)(Cc4cccc(Cl)c4)C3)cn2)c1 (stereo not shown),5.65
25,O=C(CN(Cc1ccccc1)S(=O)(=O)c1ccc(Br)cc1)NCc1ccco1,-3.16
26,O=C(CCn1cnnn1)N1CCCC(Nc2ccc(F)c(F)c2)C1 (stereo not shown),15.1
27,C=CCOC(=O)C1=C[C@@H](C2CCCCC2)C[C@@H](OCc2ccc(CO)cc2)O1,12.6
